# Test results as given in publication PMC4336329 (PLoS ONE, 2015).
# Out of some 310,000 compounds screened, about 2,200 (0.71%) showed an effect of 50% or more. Effects have a minus sign here. The list shows a part of the results.
# Target: human ether-à-go-go-related gene (hERG) potassium channel (human, UniProt Q12809)
# Experiment: primary screen, population patch clamp on CHO cells stably expressing hERG
# human ether-à-go-go-related gene (hERG) potassium channel, sequence (Q12809 whole entry, looked up): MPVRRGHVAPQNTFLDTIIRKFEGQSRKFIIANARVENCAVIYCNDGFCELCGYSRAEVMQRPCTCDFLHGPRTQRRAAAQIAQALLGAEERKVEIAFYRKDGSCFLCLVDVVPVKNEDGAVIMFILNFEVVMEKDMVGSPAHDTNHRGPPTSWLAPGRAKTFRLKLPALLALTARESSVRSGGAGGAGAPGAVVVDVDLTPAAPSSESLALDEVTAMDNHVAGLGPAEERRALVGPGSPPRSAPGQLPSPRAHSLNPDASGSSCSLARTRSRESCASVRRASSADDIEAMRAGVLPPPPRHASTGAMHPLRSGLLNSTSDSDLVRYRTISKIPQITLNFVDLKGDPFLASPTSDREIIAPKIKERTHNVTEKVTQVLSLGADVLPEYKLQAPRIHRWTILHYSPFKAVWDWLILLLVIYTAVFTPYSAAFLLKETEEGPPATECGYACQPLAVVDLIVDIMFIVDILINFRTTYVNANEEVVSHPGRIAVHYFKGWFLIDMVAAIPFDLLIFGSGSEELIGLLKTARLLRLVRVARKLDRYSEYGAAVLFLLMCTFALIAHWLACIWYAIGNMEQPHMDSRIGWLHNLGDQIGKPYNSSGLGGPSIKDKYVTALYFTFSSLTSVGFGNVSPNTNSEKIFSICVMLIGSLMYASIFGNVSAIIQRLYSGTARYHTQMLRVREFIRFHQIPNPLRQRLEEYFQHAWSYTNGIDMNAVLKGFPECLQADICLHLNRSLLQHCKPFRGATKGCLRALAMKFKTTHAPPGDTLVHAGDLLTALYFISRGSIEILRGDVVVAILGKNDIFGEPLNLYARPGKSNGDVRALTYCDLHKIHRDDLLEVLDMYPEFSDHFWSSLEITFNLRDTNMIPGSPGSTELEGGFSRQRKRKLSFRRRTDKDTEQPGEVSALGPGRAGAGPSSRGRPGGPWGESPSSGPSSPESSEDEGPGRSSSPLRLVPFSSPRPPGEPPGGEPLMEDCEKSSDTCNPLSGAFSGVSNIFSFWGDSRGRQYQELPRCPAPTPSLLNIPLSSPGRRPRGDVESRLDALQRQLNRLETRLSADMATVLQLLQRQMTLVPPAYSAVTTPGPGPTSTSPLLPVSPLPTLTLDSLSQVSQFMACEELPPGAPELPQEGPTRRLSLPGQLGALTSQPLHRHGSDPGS
row,SMILES,"hERG current change (%, negative = inhibition) at 1uM [%]"
1,Cc1cc(SCC(=O)NCC2CCCO2)nc2ccccc12 (stereo not drawn),3.84
2,CC1CCN(C(=O)c2ccc([N+](=O)[O-])o2)CC1,10.4
3,c1ccc2c(C3=NNC(=NC4CCCCC4)SC3)c[nH]c2c1,1.78
4,O=C(NCc1ccccn1)Nc1ccc(Cl)c(Cl)c1,-2.17
5,COc1cccc(OCc2nnc(SCC(=O)N3c4ccccc4Sc4ccc(Cl)cc43)o2)c1,4.52
6,Cc1cc(OCC(=O)N2CCC(C(=O)O)(c3ccccc3)CC2)c2c(C)c(C)c(=O)oc2c1,4.94
7,CN(CCc1ccccn1)C1CC(=O)N(c2ccc(Cl)cc2)C1=O (stereo not drawn),8.69
8,COc1ccc(NC(=S)N2CCNC(=O)C2CC(=O)Nc2ccc(C)cc2)cc1 (stereo not drawn),6.98
9,CC(C)N=Cc1c(O)[nH]c2ccccc12,9.58
10,CC1(C)CC(=O)/C(=C(\O)Cc2ccccc2)C(=NCCCCCC(=O)O)C1,-4.34
11,CCc1ccc(N=C2NC(=O)/C(=C/c3ccc(OCC(=O)O)cc3)S2)cc1,9.62
12,COCCCNC(=O)Cn1c(=O)oc2cc(S(=O)(=O)N3CC(C)CC(C)C3)ccc21 (stereo not drawn),17.5
13,O=C(c1ccco1)N1CCC(c2nc(-c3ccccc3Cl)no2)CC1,1.24
14,CCN(CC)c1ccc(/C=N/NC(=O)c2cc3ccccc3[nH]2)cc1,10.5
15,Cc1ccccc1N(C(=O)Cc1c[nH]c2ccccc12)C(C(=O)NC1CCCCC1)c1ccco1 (stereo not drawn),3.81
16,CC(C)CN(C(=O)COC(=O)c1ccccn1)c1c(N)n(Cc2ccccc2)c(=O)[nH]c1=O,1.21
17,Cc1nc(NS(=O)(=O)c2ccccc2)sc1C(=O)N/N=C/c1ccccc1,-2.87
18,Cc1ccc(N2CCN(c3ccc(NC(=O)CCC(=O)O)cc3)CC2)cc1,9.13
19,CCOC(=O)C1(CC2CC2)CCN(S(=O)(=O)C[C@]23CC[C@H](CC2=O)C3(C)C)CC1,6.16
20,O=[N+]([O-])c1ccccc1CSc1ccccn1,17
21,OC(CNC1CCCCC1)CNC1CCCCC1,6.88
22,Cc1c(CCO)c(=O)[nH]n1S(=O)(=O)c1ccc(F)cc1,5.88
23,CCN(CC)CCN(C(=O)c1ccc2ccccc2c1)c1nc2cc3c(cc2s1)OCO3.Cl,0.509

row,SMILES,"hERG current change (%, negative = inhibition) at 1uM [%]"
1,CCOc1ccc(Oc2nc(C)cc(OC)n2)nn1,-3.57
2,Cn1c(N)c(C(=O)COC(=O)[C@H](Cc2ccccc2)N2C(=O)c3ccccc3C2=O)c(=O)n(C)c1=O,13.8
3,CCCOc1ccc(CN(CCC#N)C(=S)NC(=O)c2ccccc2)cc1,5.23
4,Cc1ccccc1C(=O)Nc1ccnn1C1CCN(Cc2ccccn2)CC1,-14.6
5,C=CCSc1n[nH]c(-c2ccc(OCCC)cc2)n1,7.2
6,CC1C(=O)CCC1(C(=O)O)c1ccccc1 (stereo not drawn),13.7
7,O=C(Nc1ccc2c(c1)C(=O)NC2=O)c1ccc(S(=O)(=O)N2CCCC2)cc1,8.71
8,Cc1cccc(C)c1NC(=O)CCCSc1nnnn1C,11.8
9,C=CCN1CCN(C(=O)c2ccc(-c3ccccc3)cc2)CC1,13.3
10,COc1cc2c(cc1OC)-c1cc(NC3CCCCCC3)nc(=O)n1CC2,3.43
11,S=C(NCCN1CCOCC1)Nc1ccc(Cl)cc1,6.9
12,O=C(NCc1ccncc1)c1cccc(NS(=O)(=O)c2ccc(F)c(F)c2)c1,-7.88
13,O=C(COC(=O)C1CCN(c2ccc(C(F)(F)F)cn2)CC1)c1ccccc1Cl,14.3
14,CCOc1ccc(CNC(=O)CCC(=O)N2CCSc3ccccc32)cc1,3.97
15,CCN1C(C(=O)c2ccccc2)=C(Nc2ccccc2C)c2ccccc2S1(=O)=O,5.96
16,CC1(C)Cc2nc3sc4c(=O)n(CC(N)=O)cnc4c3cc2CO1,8.19
17,Cc1nc(-c2ccc(S(=O)(=O)N3CCN(Cc4ccccc4)CC3)s2)cs1,6.56
18,Cc1cc(Cl)cc2sc(NC(=O)C3CC3)nc12,4.55
19,CCOC(=O)c1ccc(N2C(=O)C(O)=C(C(C)=O)C2c2ccc([N+](=O)[O-])cc2)cc1 (stereo not drawn),7.54
20,O=C(Nc1ccccc1)c1ccccc1CC[N+](=O)[O-],9.19
21,COc1ccc(-c2csc(NC(=O)C3CCCO3)n2)cc1 (stereo not drawn),11.5
22,CCOC(=O)Nc1ccc2c(c1)N(C(=O)CCN(CC)CC)c1ccccc1S2=O.Cl (stereo not drawn),5.41
23,CCCOc1ccc2c3c(c(=O)oc2c1OCCC)CCCC3,8.28

row,SMILES,"hERG current change (%, negative = inhibition) at 1uM [%]"
1,O=C(COC(=O)c1ccccn1)Nc1ncc(C(F)(F)F)cc1Cl,-9.94
2,CC1(C)Cc2nc3sc4c(SCC(=O)NC(c5ccccc5)c5ccccc5)ncnc4c3cc2CO1,11.9
3,CCCCCCCCN1C(=O)C(O)=C(C(C)=O)C1c1ccccn1 (stereo not drawn),9.81
4,Cc1ccc(Cl)cc1N(CC(=O)NCc1ccccc1)S(C)(=O)=O,18
5,Cc1cc(=O)oc2cc(OCC(=O)NC3CC(C)(C)NC(C)(C)C3)ccc12,-7.79
6,CCCCn1c(N)c(N(CCOC)C(=O)c2c(C)noc2C)c(=O)[nH]c1=O,13.1
7,COc1cccc(NC(=O)COc2ccc(C)cc2)c1,5.59
8,Cc1ccc(N)c(C(=O)c2ccc(Br)cc2)c1,12.9
9,CCOC(=O)N1CCC(NC2CCCCCCC2)CC1,-3.76
10,CC1(C)CC(O)CC(C)(C)N1CC(O)COCc1ccccc1 (stereo not drawn),13.1
11,COc1ccccc1NS(=O)(=O)c1ccc2c(c1)CCN2C(=O)CCC(=O)O,14.4
12,O=C1C([N+](=O)[O-])=C(O)c2cccc3cccc1c23,11.4
13,ClCc1cc2ccccc2nc1Cl,6.94
14,COc1ccc(CCn2c(=O)[nH]c3cc(C(=O)NCCCN4CCOCC4)ccc3c2=O)cc1OC,15.7
15,COc1cc(C=O)ccc1Oc1nnnn1-c1ccccc1,14.5
16,CC1(C)OC(=O)C(=CNc2cccc(O)c2)C(=O)O1,14.2
17,Cc1cc(C)c(NC(=O)CSc2nc3ccncc3[nH]2)c(C)c1,15.8
18,CCc1cc(=O)oc2cc(C)cc(OC(C)C(=O)NCCN3CCOCC3)c12 (stereo not drawn),8.13
19,Cn1cc(Cl)c(-c2nc3ccccc3[nH]2)n1,-3.35
20,CCCNC(=O)c1ccc(S(=O)(=O)c2ccc(OC)cc2)c([N+](=O)[O-])c1,7.6
21,C=CCNS(=O)(=O)c1ccc(N2C(=O)c3ccccc3C2=O)cc1,5.61
22,COc1ccc(-c2noc(N3CCC(C(=O)Nc4ccccc4F)CC3)n2)cc1,2.56
23,O=C(c1ccc(F)cc1)N1CCN(C(=O)c2cccnc2)CC1,7.53

row,SMILES,"hERG current change (%, negative = inhibition) at 1uM [%]"
1,O=C(CSc1ccccc1)NCCc1ccc(F)cc1,10.7
2,CC(C)NC(=O)c1onc(CSc2ccccc2F)c1C(=O)O,15
3,COc1ccc(/C=C/C2=CC(C)(C)NC(=S)N2)cc1,13.4
4,N#Cc1ccc(OCC(=O)NCCN2CCOCC2)cc1,8.41
5,O=C(Nn1cnnc1)c1ccccc1-c1ccccc1,3.17
6,CCOC(=O)C[C@H]1c2cc(F)ccc2S(=O)(=O)N1C(C)(C)C,9.82
7,COc1cc(NC(=O)c2cc3nc(-c4ccccc4)cc(-c4ccccc4)n3n2)cc(OC)c1OC,11.6
8,COc1ccccc1CNC(=O)CSc1ccccc1,16.8
9,CCn1ncc(Cl)c1C(=O)Nc1cc(Cl)ccc1Cl,5.15
10,CC(C)(C)C(=O)NC(=S)Nc1ccccc1C(=O)Nc1ccccc1,5.47
11,Nc1ccc(Oc2ccccc2-c2ccccc2)cc1,7.54
12,COc1ccccc1NS(=O)(=O)c1cc(NC(=O)c2cccs2)ccc1N1CCCC1,9.95
13,COC(=O)C1=NN(c2ccc(Cl)cc2)C2C(=O)N(c3ccccc3OC)C(=O)C12 (stereo not drawn),8.05
14,O=C(NCc1ccccc1)C(c1ccco1)N(C(=O)c1csnn1)c1ccccc1 (stereo not drawn),9.93
15,Cc1ccccc1C(=O)N1CCN(CCNC(=O)C(=O)Nc2ccc(Br)cc2)CC1,-22.9
16,CN1C=CC=C/C1=C1/N=C(c2ccccc2)OC1=O,17.2
17,CN(C)CCN(C(=O)c1ccc(Br)s1)c1nc2cc3c(cc2s1)OCCO3.Cl,12.1
18,CCOC(=O)c1cn[nH]c1NC(=S)Nc1ccc(Cl)cc1,12.7
19,Clc1ccc(CSc2nnc(-c3ccccn3)n2Cc2ccco2)c(Cl)c1,3.72
20,Cc1cc2c(cc1C)[n+](C)cn2CC(O)COCc1ccccc1.[I-] (stereo not drawn),9.69
21,CC(C)C(c1nnnn1C(C)(C)C)N1CCC(Cc2ccccc2)CC1 (stereo not drawn),6.44
